Where a chain is given by its changes, count along the chain named. Some of the results follow.

T1: RBFOX1 RRM RbFoxmut (Fox-RRM*) (Homo sapiens, UniProt Q9NWB1 109-208, R118D;E147R;N151S;E152T)
T1 sequence: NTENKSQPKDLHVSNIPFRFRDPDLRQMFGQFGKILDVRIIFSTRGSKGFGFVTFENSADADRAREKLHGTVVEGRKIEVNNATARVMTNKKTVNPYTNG

B1: GCAGACU (DNA:RNA)
RNA: GGGAGACCGGAAUUCAGAUUGUCCGCAGACUUUAAAUCCCGUCGUAGCCACCA
DNA 1: CAATCTGAATTCCGGTCTCCC
DNA 2: TGGTGGCTACGACGGGATT
B2: CGACGGU (DNA:RNA)
RNA: B1 RNA with G25C, C26G, G28C, A29G, C30G
DNA 1: CAATCTGAATTCCGGTCTCCC
DNA 2: TGGTGGCTACGACGGGATT
B3: AACAACU (DNA:RNA)
RNA: B1 RNA with G25A, C26A, A27C, G28A
DNA 1: CAATCTGAATTCCGGTCTCCC
DNA 2: TGGTGGCTACGACGGGATT
B4: CGUUCCC (DNA:RNA)
RNA: B1 RNA with G25C, C26G, A27U, G28U, A29C, U31C
DNA 1: CAATCTGAATTCCGGTCTCCC
DNA 2: TGGTGGCTACGACGGGATT
B5: AGAUUGC (DNA:RNA)
RNA: B1 RNA with G25A, C26G, G28U, A29U, C30G, U31C
DNA 1: CAATCTGAATTCCGGTCTCCC
DNA 2: TGGTGGCTACGACGGGATT
B6: GACACCC (DNA:RNA)
RNA: B1 RNA with C26A, A27C, G28A, A29C, U31C
DNA 1: CAATCTGAATTCCGGTCTCCC
DNA 2: TGGTGGCTACGACGGGATT
B7: UCUUGUG (DNA:RNA)
RNA: B1 RNA with G25U, A27U, G28U, A29G, C30U, U31G
DNA 1: CAATCTGAATTCCGGTCTCCC
DNA 2: TGGTGGCTACGACGGGATT
B8: GCCAGGA (DNA:RNA)
RNA: B1 RNA with A27C, G28A, A29G, C30G, U31A
DNA 1: CAATCTGAATTCCGGTCTCCC
DNA 2: TGGTGGCTACGACGGGATT
B9: ACCAUUU (DNA:RNA)
RNA: B1 RNA with G25A, A27C, G28A, A29U, C30U
DNA 1: CAATCTGAATTCCGGTCTCCC
DNA 2: TGGTGGCTACGACGGGATT
B10: AAAUUUG (DNA:RNA)
RNA: B1 RNA with G25A, C26A, G28U, A29U, C30U, U31G
DNA 1: CAATCTGAATTCCGGTCTCCC
DNA 2: TGGTGGCTACGACGGGATT
B11: AAACCUC (DNA:RNA)
RNA: B1 RNA with G25A, C26A, G28C, A29C, C30U, U31C
DNA 1: CAATCTGAATTCCGGTCTCCC
DNA 2: TGGTGGCTACGACGGGATT
B12: CAGUCUU (DNA:RNA)
RNA: B1 RNA with G25C, C26A, A27G, G28U, A29C, C30U
DNA 1: CAATCTGAATTCCGGTCTCCC
DNA 2: TGGTGGCTACGACGGGATT
B13: GAGUGGG (DNA:RNA)
RNA: B1 RNA with C26A, A27G, G28U, A29G, C30G, U31G
DNA 1: CAATCTGAATTCCGGTCTCCC
DNA 2: TGGTGGCTACGACGGGATT
B14: UUCUCCG (DNA:RNA)
RNA: B1 RNA with G25U, C26U, A27C, G28U, A29C, U31G
DNA 1: CAATCTGAATTCCGGTCTCCC
DNA 2: TGGTGGCTACGACGGGATT
B15: ACAUAUG (DNA:RNA)
RNA: B1 RNA with G25A, G28U, C30U, U31G
DNA 1: CAATCTGAATTCCGGTCTCCC
DNA 2: TGGTGGCTACGACGGGATT
B16: AGAGCUG (DNA:RNA)
RNA: B1 RNA with G25A, C26G, A29C, C30U, U31G
DNA 1: CAATCTGAATTCCGGTCTCCC
DNA 2: TGGTGGCTACGACGGGATT
B17: CUCAGUA (DNA:RNA)
RNA: GGGAGACCGGAAUUCAGAUUGUCCCUCAGUAUUAAAUCCCGUCGUAGCCACCA
DNA 1: CAATCTGAATTCCGGTCTCCC
DNA 2: TGGTGGCTACGACGGGATT
B18: UCUGAAC (DNA:RNA)
RNA: B1 RNA with G25U, A27U, C30A, U31C
DNA 1: CAATCTGAATTCCGGTCTCCC
DNA 2: TGGTGGCTACGACGGGATT
B19: CGAGUUC (DNA:RNA)
RNA: B17 RNA with U26G, C27A, A28G, G29U, A31C
DNA 1: CAATCTGAATTCCGGTCTCCC
DNA 2: TGGTGGCTACGACGGGATT
B20: GUGGCUC (DNA:RNA)
RNA: B17 RNA with C25G, C27G, A28G, G29C, A31C
DNA 1: CAATCTGAATTCCGGTCTCCC
DNA 2: TGGTGGCTACGACGGGATT
B21: CUGGUAG (DNA:RNA)
RNA: B17 RNA with C27G, A28G, G29U, U30A, A31G
DNA 1: CAATCTGAATTCCGGTCTCCC
DNA 2: TGGTGGCTACGACGGGATT
B22: AAAUUCG (DNA:RNA)
RNA: B1 RNA with G25A, C26A, G28U, A29U, U31G
DNA 1: CAATCTGAATTCCGGTCTCCC
DNA 2: TGGTGGCTACGACGGGATT
B23: AUCUGCU (DNA:RNA)
RNA: B17 RNA with C25A, A28U, U30C, A31U
DNA 1: CAATCTGAATTCCGGTCTCCC
DNA 2: TGGTGGCTACGACGGGATT
B24: CGGAGUA (DNA:RNA)
RNA: B17 RNA with U26G, C27G
DNA 1: CAATCTGAATTCCGGTCTCCC
DNA 2: TGGTGGCTACGACGGGATT
B25: GCCUAGA (DNA:RNA)
RNA: B1 RNA with A27C, G28U, C30G, U31A
DNA 1: CAATCTGAATTCCGGTCTCCC
DNA 2: TGGTGGCTACGACGGGATT
B26: UAUUCUA (DNA:RNA)
RNA: B17 RNA with C25U, U26A, C27U, A28U, G29C
DNA 1: CAATCTGAATTCCGGTCTCCC
DNA 2: TGGTGGCTACGACGGGATT
B27: AGCUAUU (DNA:RNA)
RNA: B17 RNA with C25A, U26G, A28U, G29A, A31U
DNA 1: CAATCTGAATTCCGGTCTCCC
DNA 2: TGGTGGCTACGACGGGATT
B28: UUCAUAG (DNA:RNA)
RNA: B17 RNA with C25U, G29U, U30A, A31G
DNA 1: CAATCTGAATTCCGGTCTCCC
DNA 2: TGGTGGCTACGACGGGATT
B29: UGUUGUU (DNA:RNA)
RNA: B17 RNA with C25U, U26G, C27U, A28U, A31U
DNA 1: CAATCTGAATTCCGGTCTCCC
DNA 2: TGGTGGCTACGACGGGATT
B30: GACUCUC (DNA:RNA)
RNA: B17 RNA with C25G, U26A, A28U, G29C, A31C
DNA 1: CAATCTGAATTCCGGTCTCCC
DNA 2: TGGTGGCTACGACGGGATT
B31: AAAGAGU (DNA:RNA)
RNA: B1 RNA with G25A, C26A, C30G
DNA 1: CAATCTGAATTCCGGTCTCCC
DNA 2: TGGTGGCTACGACGGGATT

This test addresses T1, RBFOX1 RRM RbFoxmut (Fox-RRM*). Nature of the test: EMSA; HiTS-Eq, 1 nM pool, 10 min; buffer printed only for the single-RNA assays: 10 mM Tris pH 7.5, 150 mM NaCl, 3.4 mM EDTA, 0.001% NP-40, 30 C. Conditions: tags: His6 N-terminal (pET28a); label: 5' 32P. Summed up:
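Purified RbFox RRM, wild type or mutant, was incubated for 10 min in 50 µL with 1 nM of a 5′-radiolabelled RNA pool carrying 7 randomized nucleotides, whose flanks were annealed to DNA oligonucleotides, over a series of increasing protein concentrations. Unbound RNA was resolved on 8% native PAGE, cut out, reverse-transcribed, barcoded by PCR and sequenced on an Illumina HiSeq 2500. Relative association constants were derived from changes in read counts for each RNA species versus the control reaction and normalised to the cognate motif.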
On the technique in general: A gel shift assay detects complexes by their altered migration in electrophoresis.
On to B1, for which the binding signal was 0.0704 KA relative to UGCAUGU.
Under B2 stands 0.113 KA relative to UGCAUGU; under B3, 0.0472 KA relative to UGCAUGU; under B4, 0.0596 KA relative to UGCAUGU.
In the case of B5, the binding signal is 0.14 KA relative to UGCAUGU.
Under B6 stands 0.057 KA relative to UGCAUGU.
For B7 the value was 0.156 KA relative to UGCAUGU; for B8, 0.0534 KA relative to UGCAUGU.
For B9 the value was 0.101 KA relative to UGCAUGU; for B10, 0.0621 KA relative to UGCAUGU.
Turning to B11, the binding signal is 0.0612 KA relative to UGCAUGU.
Under B12 stands 0.067 KA relative to UGCAUGU; under B13, 0.089 KA relative to UGCAUGU.
For B14 the value was 0.0802 KA relative to UGCAUGU; for B15, 0.116 KA relative to UGCAUGU.
For B16 the value was 0.0983 KA relative to UGCAUGU; for B17, 0.133 KA relative to UGCAUGU; for B18, 0.0583 KA relative to UGCAUGU.
In the case of B19, the binding signal was 0.0815 KA relative to UGCAUGU.
For B20 the value was 0.125 KA relative to UGCAUGU; for B21, 0.119 KA relative to UGCAUGU.
For B22 the value was 0.0824 KA relative to UGCAUGU.
For B23 the value was 0.0892 KA relative to UGCAUGU; for B24, 0.146 KA relative to UGCAUGU; for B25, 0.11 KA relative to UGCAUGU.
Consider B26, for which the binding signal is 0.0906 KA relative to UGCAUGU.
For B27 the value was 0.0983 KA relative to UGCAUGU; for B28, 0.111 KA relative to UGCAUGU; for B29, 0.15 KA relative to UGCAUGU.
For B30 the value was 0.0318 KA relative to UGCAUGU; for B31, 0.116 KA relative to UGCAUGU.

The values above are taken from publication PMC9911399, “Two distinct binding modes provide the RNA-binding protein RbFox with extraordinary sequence specificity”.
